Laboratory results reported in PubChem BioAssay AID1030 (National Center for Advancing Translational Sciences (NCATS), 2008).
The whole screen tested about 220,000 compounds, of which about 16,000 (7.3%) were called active. Inconclusive means that the source gave no clear call. Such entries were picked first, then a sample of the others. Calls come from the whole dose curve; as a rule, active = well fitted inhibition curve with a large enough effect (not every such curve was filed as active); inconclusive = small, poorly fitted or top-dose-only effect, or another doubt; inactive = no such curve, though single readings can be large or run the other way. Potencies of inconclusive entries are left out as doubtful fits.

Molecular target: Aldehyde dehydrogenase 1A1 (Homo sapiens) (UniProt P00352)
UniProt P00352, sequence (P00352 whole entry, looked up): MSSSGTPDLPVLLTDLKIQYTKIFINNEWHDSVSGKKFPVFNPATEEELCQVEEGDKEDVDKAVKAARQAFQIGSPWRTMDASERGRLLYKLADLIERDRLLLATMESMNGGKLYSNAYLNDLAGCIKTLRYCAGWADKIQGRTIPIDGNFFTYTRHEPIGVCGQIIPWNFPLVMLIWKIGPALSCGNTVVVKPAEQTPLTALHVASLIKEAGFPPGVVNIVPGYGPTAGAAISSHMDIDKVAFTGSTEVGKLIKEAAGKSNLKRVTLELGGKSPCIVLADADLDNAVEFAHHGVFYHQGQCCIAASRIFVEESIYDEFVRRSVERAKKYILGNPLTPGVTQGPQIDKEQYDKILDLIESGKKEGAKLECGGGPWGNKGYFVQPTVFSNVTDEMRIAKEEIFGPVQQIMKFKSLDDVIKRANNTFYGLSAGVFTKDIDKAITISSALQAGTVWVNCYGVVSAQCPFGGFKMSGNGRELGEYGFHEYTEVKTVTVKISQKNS
Assay: qHTS Assay for Inhibitors of Aldehyde Dehydrogenase 1 (ALDH1A1);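 for activity, negative = inhibition: plate controls were no enzyme wells and a reference inhibitor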
Settings: Purified ALDH1A1, NADH fluorescence, propionaldehyde substrate; series mostly up to 75.3 µM; activity, negative = inhibition: at the top concentration
Potency is the fitted concentration of half-maximal effect; tags give direction and shape of the fitted curve.

| Structure (SMILES) | Potency | activity, negative = inhibition |
| --- | --- | --- |
| C/C(=N\NC(=O)CCc1c[nH]c2ccccc12)c1cccc([N+](=O)[O-])c1 | inconclusive [inhibitor, partial curve] | – |
| c1ccc(C[n+]2cccc(-c3cc4ccccc4[nH]3)c2)cc1 | – | inactive: -12.6% [at 13.5 µM] |
| Cc1nc2c(C(=O)O)cnn2c(C)c1Cc1ccccc1F | inconclusive [inhibitor, single point] | – |
| O=S(=O)(c1ccc(F)cc1)c1nc(-c2ccco2)oc1Nc1ccccc1 | inconclusive [inhibitor, single point] | – |
| CCN(CC)S(=O)(=O)c1cccc(C(=O)Nc2cc3oc4ccccc4c3cc2OC)c1 | inconclusive [inhibitor, partial curve] | – |
| Cc1ccc2cc(C#N)c(N3CCCN(C(=O)C4CCCO4)CC3)nc2c1C (stereo not drawn) | inconclusive [inhibitor, partial curve] | – |
| Cc1cc(Br)c2nc3c(c(C(=O)O)c2c1)CCCCC3 | – | inactive: 8.1% |
| C[C@H]1C(c2ccccc2)=NN(c2ccccc2)[C@@H]1CO | inconclusive [inhibitor, partial curve] | – |
| O=C(c1ccco1)N1CCN(C2CC(=O)N(c3ccc4c(c3)OCO4)C2=O)CC1 (stereo not drawn) | inconclusive [inhibitor, single point] | – |
| COc1ccc(NC(C#N)c2ccc(OC)cc2)cc1 (stereo not drawn) | inconclusive [inhibitor, partial curve, poor fit] | – |
| COc1ccc(CN=CC2=C(O)CC(C)(C)CC2=O)cc1 | – | inactive: -5.1% |
| O=C(O)c1cc(-c2ccncc2)nc2ccccc12 | – | inactive: -10.7% [at 13.5 µM] |
| CN(C)S(=O)(=O)c1ccc(N2CCCC2)c(C(=O)NC(c2ccccc2)c2ccccc2)c1 | inconclusive [inhibitor, partial curve] | – |
| Cc1ccc(C(=O)N(CN2CCCC2=O)c2ccc(F)cc2)cc1C | inconclusive [inhibitor, partial curve, poor fit] | – |
| N#Cc1ccccc1NC(=O)c1ccc(-c2ccccc2Cl)o1 | inconclusive [inhibitor, partial curve] | – |
| CCN1CCN(c2cc(-c3ccccc3)nc3cc(-c4cccc(F)c4)nn23)CC1 | inconclusive [inhibitor, partial curve] | – |
| Nc1[nH]c(=S)[nH]c(=O)c1-c1ccccc1 | inconclusive [inhibitor, single point] | – |
| Cn1ncc2c(Nc3ccc(-c4ccccc4)cc3)ncnc21 | inconclusive [inhibitor, single point] | – |
| COC(=O)c1sc2nc(C)cc(-c3ccccc3)c2c1N | inconclusive [inhibitor, single point] | – |
| COc1ccc2c(c1)[nH]c1c(=O)n(Cc3ccco3)cnc12 | inconclusive [inhibitor, full curve] | – |
| Cc1ccc(S(=O)(=O)Cc2ccc(C(=O)NCc3ccc4c(c3)OCO4)o2)cc1 | active: 10 µM | – |
| COCCCNC(=O)c1ccc(Cn2c(=O)c3ccccc3n(Cc3ccccc3C#N)c2=O)cc1 | inconclusive [inhibitor, partial curve] | – |
| CCN1CCCC1CNC(=S)Nc1ccc(C(C)=O)cc1 (stereo not drawn) | inconclusive [inhibitor, single point] | – |

| Structure (SMILES) | Potency | activity, negative = inhibition |
| --- | --- | --- |
| COc1cc2[nH]c(=O)n(CCC(=O)NCCC(C)C)c(=O)c2cc1OC | inconclusive [inhibitor, single point] | – |
| COc1ccc(CC(CC(=O)O)C(=O)Nc2ccc(OC)cc2)cc1 (stereo not drawn) | – | inactive: 12.7% |
| Cc1cc(NC(=O)Cn2nc(-c3ccccc3F)ccc2=O)ccc1-n1cnnn1 | inconclusive [inhibitor, single point] | – |
| CCC(CO)NCc1ccc(OC2CCCC2)cc1 (stereo not drawn) | inconclusive [inhibitor, single point] | – |
| Cc1cccc(-n2c(=O)c(C#N)cc3c(=O)n4ccccc4nc32)c1 | inconclusive [inhibitor, partial curve] | – |
| O=C(NCCc1ccccc1)c1ccc(NC2=NC3CS(=O)(=O)CC3S2)cc1 (stereo not drawn) | inconclusive [inhibitor, partial curve] | – |
| CCOC(=O)c1sc(NC(=O)c2cccs2)nc1C | – | inactive: 2.04% |
| O=C(O)c1ccc(COc2ccccc2/C=C2/NC(=O)N(c3cccc(Cl)c3)C2=O)cc1 | inconclusive [inhibitor, single point] | – |
| CC(C)N1CCc2[nH]c(=S)[nH]c(=O)c2C1 | inconclusive [inhibitor, partial curve] | – |
| COC(=O)c1c(OC)cc2c(c1C)Oc1c(Cl)c(O)c(Cl)c(C)c1C(=O)O2 | inconclusive [inhibitor, partial curve] | – |
| CCOC(=O)c1ccc(NC(=O)C2C3CCC(C3)C2C(=O)O)cc1 (stereo not drawn) | inconclusive [inhibitor, single point] | – |
| Cc1cc(C(=O)COc2ccccc2[N+](=O)[O-])c(C)n1-c1cccc(S(=O)(=O)N2CCOCC2)c1 | inconclusive [inhibitor, partial curve] | – |
| COc1ccc(OC)c(C2C(C#N)=C(N)Oc3c2c(C)nn3-c2cccc(Cl)c2)c1 (stereo not drawn) | inconclusive [inhibitor, partial curve] | – |
| COc1ccc(C(=O)N2CCCC(C(=O)N3CCCCCC3)C2)cc1 (stereo not drawn) | inconclusive [inhibitor, partial curve] | – |
| CCCCn1c(NC(=O)c2ccccc2)c(C#N)c2nc3ccccc3nc21 | – | inactive: 6.47% |
| O=C(/C=C/c1ccccc1Cl)NC1CCS(=O)(=O)C1 (stereo not drawn) | – | inactive: 7.13% |
| Cc1onc(-c2ccccc2Cl)c1C(=O)Nc1nc2c(s1)CCCC2 | inconclusive [inhibitor, partial curve] | – |
| COc1cc(NC(=O)c2cccc(C)c2)c(OC)cc1NC(=O)CN1CCCCC1 | inconclusive [inhibitor, single point] | – |
| Cc1ccc(S(=O)(=O)N2CCOCC2)cc1C(=O)Nc1c(C)n(C)n(-c2ccccc2)c1=O | – | inactive: 4.66% |
| O=C(NCc1ccccc1)c1ccc2c(=O)n(CCCN3CCCC3=O)c(=S)[nH]c2c1 | active: 4.47 µM | – |
| CC(C)(C)c1ccc(CSc2nnc(-c3ccccn3)n2Cc2ccco2)cc1 | inconclusive [inhibitor, single point] | – |
| CCOC(=O)C1=C(C)N=c2s/c(=C\c3ccc(OCC(=O)O)cc3)c(=O)n2C1c1ccc(OC(C)C)cc1 (stereo not drawn) | – | inactive: 7.85% |
| O=C(Nc1ccc2c(c1)CCC2)c1cccc(S(=O)(=O)Nc2ccccc2Cl)c1 | inconclusive [inhibitor, single point] | – |

| Structure (SMILES) | Potency | activity, negative = inhibition |
| --- | --- | --- |
| O=c1[nH][nH]c(C(F)(F)F)c1/C=N/N1CCOCC1 | inconclusive [inhibitor, single point] | – |
| N#CC1(NC(=O)CN2CCc3ccccc3C2)CCCC1 | inconclusive [inhibitor, single point] | – |
| Cn1c(=O)n(CCc2ccccc2)c(=O)c2c1nc1n2CCCN1Cc1ccccc1 | inconclusive [inhibitor, partial curve] | – |
| COc1ccc(C2OC(=O)Cc3cc(OC)c(OC)cc32)cc1 (stereo not drawn) | – | inactive: 7.33% |
| Cc1cc(/C=N/n2cnnc2)c(C)n1-c1cccc(Cl)c1 | inconclusive [inhibitor, single point] | – |
| NNC(=O)c1ccc(COc2ccc3c(c2)CCC3)o1 | active: 7.94 µM | – |
| O=C(/C=C/c1ccco1)N(c1ccccn1)c1ccccn1 | inconclusive [inhibitor, single point] | – |
| Cc1cc(C(=O)c2cccs2)c(N)s1 | inconclusive [inhibitor, single point] | – |
| COc1ccc(C2C(C(=O)c3sc(C)nc3C)=C(O)C(=O)N2CCN2CCOCC2)cc1 (stereo not drawn) | inconclusive [inhibitor, single point] | – |
| N#Cc1ccc(CSc2nnc3[nH]c(=O)cc(N)n23)cc1 | inconclusive [inhibitor, single point] | – |
| O=C(COC(=O)c1cccs1)c1ccc2ccccc2c1 | – | inactive: 1.86% |
| c1ccc(-c2nn3c(-c4ccccc4)nnc3s2)cc1 | – | inactive: 5% |
| COc1ccc(NC(=O)Nc2ccccc2SC)cc1OC | inconclusive [inhibitor, single point] | – |
| CN(C)c1ccc(-c2cncnc2NCc2ccccc2)cc1 | inconclusive [inhibitor, single point] | – |
| CC(=O)N(C)C(c1ccc(N(C)C)cc1)c1nnnn1-c1c(C)cccc1C (stereo not drawn) | – | inactive: -0.244% |
| CC(C)(C)[C@H]1C=C(C(=O)N2CCN(Cc3ccc4c(c3)OCO4)CC2)O[C@@H](OCCCCO)C1 | inconclusive [inhibitor, single point] | – |
| C/C(CC(=O)Nc1cc(Cl)ccc1Cl)=N\NC(=O)c1ccccc1Br | inconclusive [inhibitor, single point] | – |
| C[n+]1ccc(/C=C/c2ccc(Br)cc2)cc1 | inconclusive [inhibitor, single point] | – |
| COc1ccc(Nc2oc(-c3ccccc3F)nc2C#N)cc1 | inconclusive [inhibitor, partial curve] | – |
| O=[N+]([O-])c1cc(-c2nnc(Nc3ccc(O)cc3)c3ccccc23)ccc1N1CCOCC1 | inconclusive [inhibitor, single point] | – |
| CCOC(=O)NC(=O)c1cn(CCNCCO)c(=O)[nH]c1=O | – | inactive: 3.75% |
| CN(Cc1ccccc1)c1ccc2nnc(-c3ccccc3)n2n1 | – | inactive: 7.35% |
